# Experimental data: the supplement of paper PMC8728848
# This is one part of the list.
# Columns and labels:
# Test in all cases: glycan array binding signal (z-score within array); higher = stronger binding
# Conditions in all cases: glycan notation: IUPAC condensed, linker removed
# [1] = biological target: Gal(b1-4)GlcNAc(b1-3)Gal(b1-4)GlcNAc(b1-2)[Gal(b1-4)GlcNAc(b1-3)Gal(b1-4)GlcNAc(b1-6)]Man(a1-6)[Gal(b1-4)GlcNAc(b1-3)Gal(b1-4)GlcNAc(b1-2)Man(a1-3)]Man(b1-4)GlcNAc(b1-4)[Fuc(a1-6)]GlcNAc
# Summary of the method: (§1)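 Negative Z-scores can be read as non-binding. The Z-score is calculated within each array and then averaged across arrays of one protein sequence at different concentrations or buffers and across linkers. Arrays, 3228 in all, were curated from the Consortium for Functional Glycomics database and kept only where the protein sequence was available.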
# [2] = biological target: Gal(b1-4)GlcNAc(b1-3)Gal(b1-4)GlcNAc(b1-3)Gal(b1-4)GlcNAc
# Summary of the method: as §1
# [3] = biological target: Gal(b1-4)GlcNAc(b1-3)Gal(b1-4)GlcNAc(b1-3)Gal(b1-4)GlcNAc(b1-2)Man(a1-3)[Gal(b1-4)GlcNAc(b1-3)Gal(b1-4)GlcNAc(b1-3)Gal(b1-4)GlcNAc(b1-2)Man(a1-6)]Man(b1-4)GlcNAc(b1-4)GlcNAc
# Summary of the method: as §1
# [4] = biological target: Gal(b1-4)GlcNAc(b1-3)Gal(b1-4)GlcNAc(b1-3)Gal(b1-4)GlcNAc(b1-2)Man(a1-3)[Gal(b1-4)GlcNAc(b1-3)Gal(b1-4)GlcNAc(b1-3)Gal(b1-4)GlcNAc(b1-2)Man(a1-6)]Man(b1-4)GlcNAc(b1-4)[Fuc(a1-6)]GlcNAc
# Summary of the method: as §1
# [5] = biological target: Gal(b1-4)GlcNAc(b1-3)Gal(b1-4)GlcNAc(b1-3)Gal(b1-4)GlcNAc(b1-2)[Gal(b1-4)GlcNAc(b1-3)Gal(b1-4)GlcNAc(b1-3)Gal(b1-4)GlcNAc(b1-6)]Man(a1-6)[Gal(b1-4)GlcNAc(b1-3)Gal(b1-4)GlcNAc(b1-3)Gal(b1-4)GlcNAc(b1-2)Man(a1-3)]Man(b1-4)GlcNAc(b1-4)[Fuc(a1-6)]GlcNAc
# Summary of the method: as §1
# [6] = biological target: Gal(b1-4)GlcNAc(b1-3)Gal(b1-4)GlcNAc(b1-3)Gal(b1-4)GlcNAc(b1-3)Gal(b1-4)GlcNAc(b1-2)Man(a1-3)[Gal(b1-4)GlcNAc(b1-3)Gal(b1-4)GlcNAc(b1-3)Gal(b1-4)GlcNAc(b1-3)Gal(b1-4)GlcNAc(b1-2)Man(a1-6)]Man(b1-4)GlcNAc(b1-4)GlcNAc
# Summary of the method: as §1
# [7] = biological target: Gal(b1-4)GlcNAc(b1-3)Gal(b1-4)GlcNAc(b1-3)Gal(b1-4)GlcNAc(b1-3)Gal(b1-4)GlcNAc(b1-2)Man(a1-3)[Gal(b1-4)GlcNAc(b1-3)Gal(b1-4)GlcNAc(b1-3)Gal(b1-4)GlcNAc(b1-3)Gal(b1-4)GlcNAc(b1-2)Man(a1-6)]Man(b1-4)GlcNAc(b1-4)[Fuc(a1-6)]GlcNAc
# Summary of the method: as §1
# [8] = biological target: Gal(b1-4)GlcNAc(b1-3)Gal(b1-4)GlcNAc(b1-3)Gal(b1-4)GlcNAc(b1-3)Gal(b1-4)GlcNAc(b1-2)[Gal(b1-4)GlcNAc(b1-3)Gal(b1-4)GlcNAc(b1-3)Gal(b1-4)GlcNAc(b1-3)Gal(b1-4)GlcNAc(b1-6)]Man(a1-6)[Gal(b1-4)GlcNAc(b1-3)Gal(b1-4)GlcNAc(b1-3)Gal(b1-4)GlcNAc(b1-3)Gal(b1-4)GlcNAc(b1-2)Man(a1-3)]Man(b1-4)GlcNAc(b1-4)[Fuc(a1-6)]GlcNAc
# Summary of the method: as §1
# [9] = biological target: Gal(b1-4)GlcNAc(b1-3)Gal(b1-4)GlcNAc(b1-3)Gal(b1-4)GlcNAc(b1-3)Gal(b1-4)GlcNAc(b1-3)Gal(b1-4)GlcNAc(b1-2)Man(a1-3)[Gal(b1-4)GlcNAc(b1-3)Gal(b1-4)GlcNAc(b1-3)Gal(b1-4)GlcNAc(b1-3)Gal(b1-4)GlcNAc(b1-3)Gal(b1-4)GlcNAc(b1-2)Man(a1-6)]Man(b1-4)GlcNAc(b1-4)GlcNAc
# Summary of the method: as §1
# [10] = biological target: Gal(b1-4)GlcNAc(b1-3)Gal(b1-4)GlcNAc(b1-3)Gal(b1-4)GlcNAc(b1-3)Gal(b1-4)GlcNAc(b1-3)Gal(b1-4)GlcNAc(b1-2)Man(a1-3)[Gal(b1-4)GlcNAc(b1-3)Gal(b1-4)GlcNAc(b1-3)Gal(b1-4)GlcNAc(b1-3)Gal(b1-4)GlcNAc(b1-3)Gal(b1-4)GlcNAc(b1-2)Man(a1-6)]Man(b1-4)GlcNAc(b1-4)[Fuc(a1-6)]GlcNAc
# Summary of the method: as §1
# [11] = biological target: Gal(b1-4)GlcNAc(b1-3)Gal(b1-4)GlcNAc(b1-3)Gal(b1-4)GlcNAc(b1-3)Gal(b1-4)GlcNAc(b1-3)Gal(b1-4)GlcNAc(b1-2)[Gal(b1-4)GlcNAc(b1-3)Gal(b1-4)GlcNAc(b1-3)Gal(b1-4)GlcNAc(b1-3)Gal(b1-4)GlcNAc(b1-3)Gal(b1-4)GlcNAc(b1-6)]Man(a1-6)[Gal(b1-4)GlcNAc(b1-3)Gal(b1-4)GlcNAc(b1-3)Gal(b1-4)GlcNAc(b1-3)Gal(b1-4)GlcNAc(b1-3)Gal(b1-4)GlcNAc(b1-2)Man(a1-3)]Man(b1-4)GlcNAc(b1-4)[Fuc(a1-6)]GlcNAc
# Summary of the method: as §1
# [12] = biological target: Gal(b1-4)GlcNAc(b1-3)Gal(b1-4)GlcNAc(b1-3)Gal(b1-4)GlcNAc(b1-3)Gal(b1-4)GlcNAc(b1-3)Gal(b1-4)GlcNAc(b1-3)Gal(b1-4)GlcNAc(b1-2)Man(a1-3)[Gal(b1-4)GlcNAc(b1-3)Gal(b1-4)GlcNAc(b1-3)Gal(b1-4)GlcNAc(b1-3)Gal(b1-4)GlcNAc(b1-3)Gal(b1-4)GlcNAc(b1-3)Gal(b1-4)GlcNAc(b1-2)Man(a1-6)]Man(b1-4)GlcNAc(b1-4)GlcNAc
# Summary of the method: as §1
# [13] = biological target: Gal(b1-4)GlcNAc(b1-3)Gal(b1-4)GlcNAc(b1-3)GalNAc
# Summary of the method: as §1
# [14] = biological target: Gal(b1-4)GlcNAc(b1-3)Gal(b1-4)GlcNAc(b1-3)[Gal(b1-4)GlcNAc(b1-3)Gal(b1-4)GlcNAc(b1-6)]GalNAc
# Summary of the method: as §1
# [15] = biological target: Gal(b1-4)GlcNAc(b1-3)Gal(b1-4)GlcNAc(b1-6)[Gal(b1-3)]GalNAc
# Summary of the method: as §1
# [16] = biological target: Gal(b1-4)GlcNAc(b1-3)Gal(b1-4)[Fuc(a1-3)]GlcNAc(b1-3)Gal(b1-4)[Fuc(a1-3)]GlcNAc
# Summary of the method: as §1
# [17] = biological target: Gal(b1-4)GlcNAc(b1-3)GalNAc
# Summary of the method: as §1
# [18] = biological target: Gal(b1-4)GlcNAc(b1-3)[Fuc(a1-3)GlcNAc(b1-6)]Gal(b1-4)Glc
# Summary of the method: as §1
# [19] = biological target: Gal(b1-4)GlcNAc(b1-3)[Gal(b1-4)GlcNAc(b1-6)]Gal(b1-4)GlcNAc
# Summary of the method: as §1
# [20] = biological target: Gal(b1-4)GlcNAc(b1-3)[Gal(b1-4)GlcNAc(b1-6)]GalNAc
# Summary of the method: as §1
# [21] = biological target: Gal(b1-4)GlcNAc(b1-3)[GlcNAc(b1-6)]Gal(b1-4)GlcNAc
# Summary of the method: as §1
# [22] = biological target: Gal(b1-4)GlcNAc(b1-6)Gal(b1-4)GlcNAc
# Summary of the method: as §1
# [23] = biological target: Gal(b1-4)GlcNAc(b1-6)Gal(b1-4)GlcNAc(b1-6)GalNAc
# Summary of the method: as §1
binder,measurement,setting,value
"BDCA-2 (Homo sapiens), Q8WTT0 (protein) MVPEEEPQDREKGLWWFQLKVWSMAVVSILLLSVCFTVSSVVPHNFMYSKTVKRLSKLREYQQYHPSLTCVMEGKDIEDWSCCPTPWTSFQSSCYFISTGMQSWTKSQKNCSVMGADLVVINTREEQDFIIQNLKRNSSYFLGLSDPGGRRHWQWVDQTPYNENVTFWHSGEPNNLDERCAIINFRSSEEWGWNDIHCHVPQKSICKMKKIYI",glycan array binding signal (z-score),[1],-0.128
same,glycan array binding signal (z-score),[2],-0.237
same,glycan array binding signal (z-score),[3],-0.087
same,glycan array binding signal (z-score),[4],-0.148
same,glycan array binding signal (z-score),[5],-0.147
same,glycan array binding signal (z-score),[6],-0.159
same,glycan array binding signal (z-score),[7],-0.154
same,glycan array binding signal (z-score),[8],-0.14
same,glycan array binding signal (z-score),[9],-0.166
same,glycan array binding signal (z-score),[10],-0.156
same,glycan array binding signal (z-score),[11],-0.155
same,glycan array binding signal (z-score),[12],-0.146
same,glycan array binding signal (z-score),[13],-0.158
same,glycan array binding signal (z-score),[14],-0.139
same,glycan array binding signal (z-score),[15],-0.125
same,glycan array binding signal (z-score),[16],-0.113
same,glycan array binding signal (z-score),[17],-0.16
same,glycan array binding signal (z-score),[18],-0.132
same,glycan array binding signal (z-score),[19],-0.185
same,glycan array binding signal (z-score),[20],-0.249
same,glycan array binding signal (z-score),[21],-0.176
same,glycan array binding signal (z-score),[22],-0.149
same,glycan array binding signal (z-score),[23],-0.323
